Measurements: PubChem BioAssay AID1508642 (National Center for Advancing Translational Sciences (NCATS), 2021)
About 200 (0.47%) of roughly 43,000 compounds were called active. Another 12% or so got no clear call; they are omitted. Calls come from the whole dose curve; as a rule, active = well fitted cell-killing curve with a large enough effect; inconclusive = small, poorly fitted or top-dose-only effect, or effect the other way; inactive = flat fitted curve, though single readings scatter. The list shows a part of the results.

experiment: Cell viability qHTS assay in S16 Pmp22-F2sN cells; conditions: S16 Pmp22-F2sN Schwann cells viability, CellTiter-Glo, 24 h; series mostly up to 57.5 µM; activity change, negative = cytotoxicity: at the top concentration; note: nearly all actives have a fitted effect of over 65% in size
Summary of the method: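 Viability was measured by CellTiter-Glo luminescence (15 min, room temperature). This followed 24 h at 37 °C of compound exposure (23 nL pin transfer) in S16 Pmp22-F2sN Schwann cells, 500-1,000 per well.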
% is set by controls: 0 for no effect and ±100 for the full control effect.

Structure (SMILES) | activity change, negative = cytotoxicity
Cc1ccc(NC(=O)C2CCN(S(=O)(=O)c3cccc4nonc34)CC2)cc1C | inactive: 10.3%
COc1cc(C2CC(=O)Oc3c2c(=O)[nH]c2ccccc32)cc(OC)c1OC (stereo not given) | inactive: 15.4%
Cc1ccc(-c2cc3nc(-c4ccccc4)cc(C(F)(F)F)n3n2)cc1 | inactive: 3.01%
CCOc1ccc(Nc2c(S(=O)(=O)c3ccccc3)cnc3ccc(F)cc23)cc1 | inactive: -15.3%
O=C(Oc1ccccc1F)c1nc(SCc2ccc(F)cc2)ncc1Cl | inactive: 3.41%
Cc1c(Cl)cccc1NC(=O)CCOc1ccccc1 | inactive: -20.5%
CCOc1ccc(Cn2c(=O)sc3ccccc32)cc1 | inactive: 1.37%
Cc1cccn2c(=O)c3cc(C#N)c(=O)n(-c4nnc(SCc5ccc(Cl)cc5)s4)c3nc12 | inactive: -5.51%
CC1=C(C(=O)Nc2ccccc2C)C(c2ccccn2)n2ncnc2N1 (stereo not given) | inactive: -3.71%
Cc1cccc(C)c1NC(=O)CS(=O)(=O)c1nc(-c2ccc(Cl)cc2)cn1-c1ccccc1 | inactive: -19.9%
CC(=O)N1CCc2cc(S(=O)(=O)NC(CC(C)C)C(=O)Nc3cc(C)cc(C)c3)ccc21 (stereo not given) | inactive: 1.9%
CCOC(=O)c1nc(NCc2ccc(Cl)cc2)c2c(C)noc2n1 | inactive: 11.7%
CCSc1ncc(Cl)c(C(=O)Nc2sc3c(c2C(=O)NCCCOC)CCCC3)n1 | inactive: -5.15%
Cc1ccc(C)c(-c2ccc(=O)n(Cc3c(F)cccc3Cl)n2)c1 | inactive: 0.289%
Cc1cc(C)c2c(c1)c(C)cc1nnc(SCc3ccccc3C#N)n12 | inactive: 0.577%
Cc1ccc(NC(=O)CN2C(=O)COc3ccc(S(=O)(=O)NC4CCCC4)cc32)cc1N(C)C | inactive: 3.1%
Cc1ccc(C)c(Cn2c(=O)c3c(nc4n3CCN4c3ccccc3)n(C)c2=O)c1 | inactive: 18.2%
CCOc1ccc(NC(=O)c2c(NCc3cc(OC)c(OC)cc3OC)sc3c2CCCC3)cc1 | inactive: -4.99%
CCC(=O)N1c2ccccc2CC1C(=O)NCCN1CCN(c2cc(Cl)ccc2C)CC1 (stereo not given) | inactive: -1.13%
O=C(Cc1ccc(Cl)cc1)Nc1ccc2oc(-c3ccc(F)cc3)nc2c1 | inactive: 16.5%
COC(=O)c1ccccc1NC(=O)C(Cc1ccccc1)N1Cc2ccccc2C1=O (stereo not given) | inactive: 4.5%
Cc1cc(C)cc(OCC(=O)N2CCC(c3nc4ccccc4o3)CC2)c1 | inactive: 0.591%
COc1ccc(C)cc1NC(=O)Cn1cc(S(=O)(=O)N2CCC(C)CC2)c2ccccc2c1=O | inactive: -8.06%
N#C/C(=C\c1ccc(F)cc1)c1nc(-c2ccc(-c3ccccc3)cc2)cs1 | inactive: 11%

Structure (SMILES) | activity change, negative = cytotoxicity
COCCCNc1nc2c(c(=O)[nH]c(=O)n2C)n1CC(O)COc1ccc(Cl)cc1 (stereo not given) | inactive: -2.46%
COc1cccc(CC(=O)Nc2c(C(=O)N3CCN(c4ccccc4F)CC3)oc3ccccc23)c1 | inactive: -22.5%
Cc1cc(C)c2c(=O)c3c(oc2c1)C(=O)N(CCCOC(C)C)C3c1ccccc1F (stereo not given) | inactive: 0.139%
COc1ccc(NC(=O)Cn2c(-c3ccc(F)cc3)cc(C(C)=O)c2C)c(OC)c1 | inactive: -9.83%
CC(=O)Nc1ccc(S(=O)(=O)NCC2CCC(C(=O)NCCc3ccc(C)cc3)CC2)cc1 (stereo not given) | inactive: 2.46%
COc1ccc(CCNC(=O)Cn2c(=O)nc(-c3ccccc3)c3cc(Cl)ccc32)cc1OC | inactive: -15.2%
CC(=O)c1cccc(NC(=O)c2ccc3c(c2)N(Cc2ccc(C)cc2)CCS3)c1 | inactive: 4.12%
Clc1ccc(-c2cn3cc(Cc4ccccc4)sc3n2)cc1 | inactive: 23.3%
CCc1ccc(NC(=O)CNC(=O)Cn2c(C)cc3ccccc3c2=O)cc1 | inactive: 9.17%
CCOc1ccc(CCNC(=O)c2ccc(CSCc3ccccc3C)o2)cc1OCC | inactive: -4.01%
COC(=O)c1c(NC(=O)c2ccc(C(C)(C)C)cc2)sc2c1CCC(C)C2 (stereo not given) | inactive: -10.1%
COc1cc(C2CC(=O)c3c([nH]c(C(=O)OC4CCCC4)c3C)C2)cc(OC)c1OC (stereo not given) | inactive: -15.5%
CCN(C(=O)Cn1nc(Cc2ccncc2)c2ccccc2c1=O)c1ccc(OC)cc1 | inactive: 2.14%
CCOC(=O)c1c(NC(=O)COc2ccccc2)sc(C(C)=O)c1C | inactive: 20%
CC1(C)CC(=O)c2cc(-c3nc(-c4ccc(F)cc4)cs3)c(=O)[nH]c2C1 | inactive: 3.1%
CCN(C(=O)C(NS(=O)(=O)c1ccc(Br)s1)c1ccccc1)c1ccc(C)c(C)c1 (stereo not given) | inactive: -4.34%
CC1=C(c2ccc(Cl)cc2)S(=O)(=O)N=C1N1CCN(c2cc(C)ccc2C)CC1 | inactive: -2.28%
Cc1cc2[nH]c(=O)c(=O)[nH]c2cc1S(=O)(=O)N1CCN(c2ccccc2F)CC1 | inactive: 5.54%
Cc1cc(C)cc(-n2c(SCC(=O)Nc3ccc4c(c3)OCO4)nc3c([nH]c4ccccc43)c2=O)c1 | inactive: 4.49%
COc1ccc(CNC(=O)C(=O)NCC(c2cccnc2)N2CCN(c3ccccc3)CC2)cc1 (stereo not given) | inactive: -16%
CCOC(=O)c1ccc(NC(=O)Cn2nc(C)c3nn(-c4ccc(Cl)cc4)c(C)c3c2=O)cc1 | inactive: -7.82%
CCc1nc2nc(C)cc(Nc3cc(C)ccc3C)n2n1 | inactive: -2.79%
Cc1cccc(N2CCN(C(=O)c3cnn(-c4ccccc4)c3C3CCN(C(=O)OC(C)(C)C)CC3)CC2)c1C | inactive: -4.34%
CCOC(=O)c1c(NC(=O)C(C)Sc2cn(CCNC(=O)c3ccc(OCC)cc3)c3ccccc23)sc2c1CCC2 (stereo not given) | inactive: 24.9%

Structure (SMILES) | activity change, negative = cytotoxicity
CCOC(=O)c1c(S(=O)(=O)N2CCC(C(=O)NCc3ccccc3Cl)CC2)c(C)n(C)c1C | inactive: 9.21%
COCCn1ccc2c(OCC(=O)Nc3cccc(C(F)(F)F)c3)cccc2c1=O | inactive: -4.64%
COc1ccc(N2CC(NC(=O)C(c3ccccc3)c3ccccc3)CC2=O)cc1 (stereo not given) | inactive: -14.2%
COc1cccc(CNC(=O)c2ccc3c(c2)sc2nc(-c4cccc(OC)c4)cn23)c1 | inactive: -13.8%
Cc1nc2nc[nH]n2c(=O)c1NS(=O)(=O)c1ccc(Br)cc1 | inactive: -4.36%
Cc1ccc(Nc2ncnc3c2nc2n3CCCC2)cc1F | inactive: -0.238%
Cc1ccc2nc3c(cc(C(=O)NC4CCCC4)c(=N)n3C(C)C)c(=O)n2c1 | inactive: 14.5%
CCC(Nc1ccc(-c2nc(-c3cccnc3)no2)cc1[N+](=O)[O-])c1ccccc1 (stereo not given) | inactive: 12.4%
COc1ccc2[nH]cc(CCNC(=O)Nc3cc(C)cc(C)c3)c2c1 | inactive: 2.6%
O=c1c2cccnc2n(Cc2cccc(F)c2)c(=O)n1Cc1ccc(F)cc1 | inactive: 18.6%
CCOC(=O)c1c(-c2ccc(OC)c(OC)c2)csc1NC(=O)c1ccccc1F | inactive: 14.2%
COc1ccccc1Nc1nc(-c2ccccc2)c(CC(=O)O)s1 | inactive: -4.43%
COc1ccc2c(c1)c1c(c(=O)n(-c3cccc(C)c3)c(=O)n1CC(=O)NCCC1=CCCCC1)n2C | inactive: -6%
Cc1cccc(CNS(=O)(=O)c2ccc(-c3coc(C)n3)cc2)c1 | inactive: -3.41%
COc1ccc(S(=O)(=O)c2nnn(-c3cccc(Cl)c3)c2N)cc1 | inactive: 3.36%
COc1cc(CNC(=O)c2cnc3c(-c4cccc(C)c4)c(C)nn3c2C)cc(OC)c1OC | inactive: -0.463%
COc1ccc(-c2cc3ccc(O)c(CN4CCN(C)CC4)c3oc2=O)cc1OC | inactive: -4.32%
CCOCCOC(=O)c1ccc2c(c1)N(Cc1ccccc1C#N)C(=O)c1ccccc1S2(=O)=O | inactive: 0.112%
CCc1ccc(C(=O)COC(=O)C(NC(=O)C2CCC(C)CC2)C(C)C)cc1 (stereo not given) | inactive: 11.5%
Nc1cc(=O)nc(SCC(=O)Nc2ccccc2)n1CCc1ccccc1 | inactive: 20.2%
O=C(NC1CC(=O)N(c2ccc(Cl)cc2)C1)c1cc2ccccc2o1 (stereo not given) | inactive: 3.94%
CC(=O)Nc1ccc(Nc2ccc3cc(S(=O)(=O)N4CCCCC4)ccc3n2)cc1 | inactive: -26%
CCCc1ccc(OCC(=O)Nc2sc3c(c2C(=O)OCC)CCC(C(C)(C)C)C3)cc1 (stereo not given) | inactive: -0.69%
COc1ccc(N(CC(=O)NCCc2ccccc2)S(=O)(=O)c2c(C)nn(C)c2C)cc1 | inactive: 5.09%

Structure (SMILES) | activity change, negative = cytotoxicity
COc1ccc(-n2c(=O)c3c4c(sc3n(Cc3ccccc3C)c2=O)CCCC4)c(OC)c1 | inactive: -6.17%
CCc1cccc(NC(=O)C(Cc2ccccc2)NS(=O)(=O)c2cccs2)c1 (stereo not given) | inactive: -29.5%
CC(=O)c1ccc(Nc2cc(C)nc3nc(Cc4ccccc4)nn23)cc1 | inactive: -17%
CCC1(C)CC(=O)c2c(ccc3oc(C(=O)Nc4ccc(C(C)=O)cc4)c(C)c23)O1 (stereo not given) | inactive: 7.22%
CC(C)c1ccc(Nc2sc(C(=O)c3ccccc3)c(N)c2S(=O)(=O)c2ccccc2)cc1 | inactive: -16.8%
CCc1nc2ccc(C(=O)N3CCN(c4cccc(Cl)c4)CC3)cc2nc1CC | inactive: -12.4%
CC(C)CC(=O)Nc1nnc(S(=O)(=O)N2c3ccccc3CC2C)s1 (stereo not given) | inactive: 4.72%
CCOc1ccc(C(=O)NCCc2csc(-c3cccc(C)c3)n2)cc1 | inactive: 16.3%
Cc1ccc(N2CCN(C(=O)Cn3ncc4c([nH]c5ccc(C)cc54)c3=O)CC2)c(C)c1 | inactive: 9.92%
CCCn1c2ccccc2c2cnn(CC(=O)Nc3cc(OC)c(OC)c(OC)c3)c(=O)c21 | inactive: -2.99%
COc1cc2c(cc1OC)C(CC(=O)O)N(C(=O)Nc1cc(OC)c(OC)c(OC)c1)CC2 (stereo not given) | inactive: 9.84%
CCc1ccc(C2=NN(CCC(=O)NCCc3ccccc3)C(=O)CC2)cc1 | inactive: 12.4%
Cc1cc(C)c(/C=C/c2onc(C)c2S(=O)(=O)N2CCC(C(=O)Nc3cccc(C)c3C)CC2)c(C)c1 | inactive: 5.08%
COc1ccccc1-c1noc(CSc2nnc(-c3ccccc3)n2-c2ccc(C)c(C)c2)n1 | inactive: 0.344%
CCOC(=O)CNC(=O)Nc1cc(C(=O)NCc2ccc(C(C)C)cc2)ccc1N1CCCC1 | inactive: -0.75%
Cc1cc(OCC(=O)Nc2sc3c(c2C#N)CCC(C)C3)ccc1Cl (stereo not given) | inactive: -3.83%
Cc1ccc2[nH]c(=O)c3cc(C(=O)NCc4cccc(Cl)c4)sc3c2c1 | inactive: -4.66%
O=C(CSc1ncc(-c2ccc(Cl)cc2)[nH]1)Nc1ccccc1F | inactive: 2.38%
CCOc1ccc(C(=O)c2cn(Cc3cccc(OC)c3)c3cc4c(cc3c2=O)OCO4)cc1 | inactive: 5.17%
CC(=O)c1ccc(NC(=O)CSc2nc(-c3ccccc3C)nc3c2c(=O)n(C)c(=O)n3C)cc1 | inactive: 7.01%
CCOC(=O)c1c(C)oc2nc(C)nc(N(C)Cc3ccccc3)c12 | inactive: 0.868%
Cc1ccc(NC(=O)CCS(=O)(=O)c2ccc3nc(C)sc3c2)c(C)c1 | inactive: 2.06%
CCOc1ccc(CN2C(=O)c3ccccc3Sc3ccc(C(=O)NCCCN4CCOCC4)cc32)cc1 | inactive: 0.199%
